Results from PubChem BioAssay (NCI).
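48-hour exposure; five concentrations; linearly interpolated endpoints. Abbreviation: GI50, concentration required for 50% inhibition of growth. TGI is the concentration that stops growth completely.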

test system: NCI-H322M lung; assay: NCI anticancer screen, dose series, 48 h

Row | Structure (SMILES) | GI50 [nM] | TGI [nM]
1 | CN1CCN(Cc2ccc(NC(=O)c3cncc(C#Cc4cnc5ccc(N6CCN(C)CC6)nn45)c3)cc2C(F)(F)F)CC1 | 1880 | 4130
2 | FC(F)(F)c1cc(Nc2cccc(Oc3ccc(NC4=NCCN4)nc3)c2)ccc1Cl | 2400 | 6570
3 | C[C@@H]1CN(c2ccc3ncc(C#Cc4cncc(C(=O)Nc5ccc(CN6CCN(C)CC6)c(C(F)(F)F)c5)c4)n3n2)C[C@H](C)O1 | 52.5 | 360
